The source of these data is the RNAGym collection of RNA variant scans (doi:10.7554/elife.90254).

To fix the notation:
B1: LINE1-full (parent)
chain: UACGUAGGUGGUUUUCCCCUGAUAGUGCUAAGGGGGCCUGGAAGUUUGGACUGGGCAGAGCUCAACACAGCGUGGCAAAGUGGCUGUGGCUAGACUGCCUCUCUGGAUUCCUCGUCACUCAGCAGGGCAUCUCUGAGAGAAAUGCC

The source gives no read counts; variants with many changes may rest on few reads.

The variants in this data set derive from B1. In words: self-cleavage, relative activity (ratio to wild type); higher = more cleavage; in vitro, sequencing; the parent is a self-cleaving ribozyme.
Regarding G49A A64U A69G, the self-cleavage was determined as 0.04.
With U46C G54A G74U A121U the figure was 1.41; with U47C U87G A117U G144A, 0.53.
Take U46C A67U U87C: the self-cleavage was 0.
Then G48A U73C U112C, with 1.18.
For the variant U47C A50U U132A, the self-cleavage was 0.
As to U47C C133A U143A, the self-cleavage was 1.21.
With U47C G72A A92G A141U, the self-cleavage is 0.06.
On to A50G A92G U104A A136U, for which the self-cleavage came to 0.
Take A50G A59G U112A: the self-cleavage came out at 0.2.
On to U47C A107U U112C, for which the self-cleavage was found to be 1.15.
For U47C G72A A79U G125U, the self-cleavage was found to be 1.98.
As to G48A U81C G125U, the self-cleavage turned out to be 1.33.
As to A50G G89A A140C, the self-cleavage was determined as 0.02.
Then U47C U73A U96A, with 0.13; and U47C U91A U132A, with 1.15.
With A50G A67U G80A G86A U115A G139A the figure was 0.02.
For U47A A65G U115A, the self-cleavage was 0.
As for U47A A117U A142G, the self-cleavage was 1.14.
Then U47C A67U U81G U119C U132A, with 0.46; and U46C A67G A78G, with 0.48.
As for U46C A94G A107G, the self-cleavage came to 1.58.
With U46C C51A A59U the figure was 1.07.
In the case of U46C U132C A138G, the self-cleavage turned out to be 1.15.
For A50G A65U G72U U132A, the self-cleavage is 0.16.
With U46C A77G C113A the figure was 1.58; with A50G A64G G126A, 0.29; with A50G C56U U109C, 0.08.
On to A50G A67U C128U, for which the self-cleavage turned out to be 0.07.
Regarding U46A A94G U134C, the self-cleavage came to 0.19.
Then G48A G126A A141G, with 1.48.
With A50G A77G U96A the figure was 0.
Then U47C U73C U134A, with 1.02; and U46A U73A U134A, with 1.14; and U47G U62C A121G, with 0.
Consider U46C A79G U102A, for which the self-cleavage was 1.84.
With U47C A50G U52A U102C, the self-cleavage is 1.84.
In the case of U47C A57U A107G U143C, the self-cleavage is 0.
Then A50G G89A G114A, with 0.04; and U47C U73A A121G, with 2.06; and U46C A117G A121U, with 2.04.
With U46C C110A U115C U143A the figure was 1.64; with U47A A57U A77G C118U, 0.08.
Consider U47C A67G C116U G125U, for which the self-cleavage worked out at 0.95.
Then A50G C90A A140G, with 0.02; and U47A A57G C120U, with 1.08.
For U46C U73G U112A A136U A142G, the self-cleavage is 1.99.
With U47C A77G C103A A117G the figure was 1.84.
Then U46A U52G G54U A107G U132C, with 0.4.
With G48A A50G U104C A136U the figure was 1.99.
As for U46C U62C A141G, the self-cleavage turned out to be 0.14.
Regarding A50G A64C A69U C84A A138G U143C, the self-cleavage came out at 0.02.
With G49U A59G A79G G89U the figure was 0.04; with U47C A138G A140G, 0.57.
Regarding U46A U47A G72A A79G U102C, the self-cleavage turned out to be 1.26.
Then U46A G49C U108C C145A, with 1.38; and U47C A59G A138G A142G, with 0; and U46C G53A G83A, with 0.14.
Take A50G A92G A141G: the self-cleavage was 0.
With U47C C131A A140G the figure was 1.7.
As for U46A U81C U109A, the self-cleavage was found to be 1.15.
Then U47C A64U U108C, with 0.38; and U46C A78U U85C A141G, with 0.26; and U47C U62C A77G A141G, with 0.
As to U47C A59G A78G, the self-cleavage amounted to 0.
With U46G A78G U102A A136G the figure was 1.15; with A50G A67U A107G A138G, 0.06; with A50G A77U A79U G83A U134C, 0.37.
Take U46C A92G A107G U132C: the self-cleavage worked out at 0.
Then U47A A57G U62C, with 0.08; and A50G A67U G88U, with 0.06.
Regarding U47A U96C G114A, the self-cleavage was determined as 0.05.
With U47A G72A A124G A140G the figure was 0.06; with A50G G125U U143G, 1.21.
With G49A A92U U109A the figure was 0.33; with G49A U85C A129G, 0.07; with U46A U100G C120U, 1.55.
With U47C A79G U109C A141G the figure was 2.36; with U46C U130C A141U, 1.13; with G49A A138U A140G, 0.75.
Take U46C A59G U73A A78U: the self-cleavage worked out at 0.11.
As for A50G A92G U132C, the self-cleavage turned out to be 0.
On to U47A G54A U73C U91C, for which the self-cleavage came out at 0.15.
Consider A50C A67G U115C G122A, for which the self-cleavage is 0.36.
Then G48A A59G U104C, with 0.06; and G49A U115C A142C, with 0.63; and G49A A59U A79G, with 0.62.
On to U47C G74A U102C, for which the self-cleavage came to 1.01.
Then U47G U85C G89A A124G, with 0.16; and U46A A94G A138G C145U, with 0.34.
For U47A U62C U100C A117G, the self-cleavage came out at 0.06.
Then U46A G55A U73C, with 0.49; and U47C G93A A94G U96A A141G, with 0.19.
For the variant U46A U87A U134A, the self-cleavage turned out to be 0.07.
Regarding U47C G48A A107U, the self-cleavage came out at 1.82.
With U47A A50G A69U A140U the figure was 0; with U46C A69G U104C, 0; with G48A A94G A107G U130C A136G, 0.
On to U47G A64G C98A, for which the self-cleavage turned out to be 0.06.
G49A U52C U73A: the self-cleavage was determined as 0.73.
Then U46C U85C G89U, with 0.03; and G48A A107C U134C, with 1.61; and G48C U96A A124G A142G, with 0.06.
With U46A U73C A138C the figure was 1.9; with U47A U73A U102C G106A, 2.18; with U47A U85C U108C U134C, 0.
Then U46A U47A U96C, with 0.2.
As to U46A U112C A121C, the self-cleavage was 1.23.
With U46C A78G U112C the figure was 1.26; with U47C U85C U130C, 0.67; with U47C U119A A141G, 1.69.
Then U46C U52A A59G G114U, with 0.06.
For U47A A57U U134A, the self-cleavage came to 0.16.
With G49A U100C A136G the figure was 2.08; with U46C U73C U100A, 1.75; with U47G A65G U87A, 0.
With A50G A107U U134C the figure was 0.64.
U46C U52C A107G: the self-cleavage was determined as 0.56.
With A50G C71U A136G, the self-cleavage is 0.28.
For G49A A117U A140G, the self-cleavage came out at 1.28.
Then A50G A77U A141G, with 1.25; and U46C U102A U115C G122A A142G, with 1.84.
Then U46A U85C A141G, with 0.04.
U46C U108A C146U: the self-cleavage was 1.32.
Then U47C G49U U102C, with 0.7; and U47C A64U A138G, with 0.76.
Then U47C U73A U104C A121G, with 1.67.
With U46C U104C U119A, the self-cleavage came out at 1.47.
Then A50G C128U A129U, with 1.33.
With U46C U91A A94G U132C the figure was 0.5.
In the case of U47C U104A A124G U143A, the self-cleavage is 0.44.
U47C A121G G126A: the self-cleavage was determined as 0.77.
In the case of U46C G106A U119A, the self-cleavage was 1.77.
With G49A U52C U73C A124G the figure was 0.4.
Then U46A U47A A77C U108C, with 0.98.
For U47C C71U A79U A92G U115C A129U, the self-cleavage was 0.
Take U46C G49C A121G A142G: the self-cleavage was 1.31.
Then U46C A64U U143C, with 0.35; and U46C G54U U100A U109G A141G, with 0.25; and U47C A64G C84G A92G, with 0.
Take G48A A77U A121U: the self-cleavage stood at 1.04.
For U46A A69G G125A A136G, the self-cleavage came out at 0.13.
Consider U47C A69U U132A, for which the self-cleavage was found to be 0.01.
As to U47C G58A A92U, the self-cleavage worked out at 0.01.
Then U47A U87C A124C U143A, with 0.16; and A50G C98U U112A U119C A140G, with 0.45; and U46A G127A A129G, with 1.3.
With U46C U62C U100C, the self-cleavage stood at 0.17.
With U46C U62C A107G the figure was 0.26; with U46A U119A A141G, 1.74; with U46C C71U U96A A117G C120U, 0.06.
As for U47C U81C G135A, the self-cleavage was 2.12.
Then U46C U85A U102C, with 0.07; and A50G A94G A129U, with 0; and A50G C76U A138U, with 1.55.
Turning to U47C A64U A79U, the self-cleavage worked out at 1.09.
With A50G A59G U87A U96C the figure was 0; with U46C C76A A117G, 1.94; with U47C G86A A136U A141G, 0.28.
With U47C A64C U91A C120U A124G the figure was 0.16; with U46C U62A A78U U130A, 0.05.
With U47C A79G G106A U112C A124G G126A, the self-cleavage was 1.81.
On to U47C C113A A124U, for which the self-cleavage came out at 0.39.
Take U46A G60C U115A A140G: the self-cleavage came to 0.06.
In the case of U47A A65G U119C U130A, the self-cleavage was 0.06.
Turning to U46C A67U A69G G82A U100C A142G, the self-cleavage came to 0.22.
With A50G A57G A67U A136G the figure was 0.11.
